Test results taken from PubChem BioAssay AID1347165 (National Center for Advancing Translational Sciences (NCATS), 2019).
Hit rate of the full screen: of about 220,000 compounds, about 5,700 (2.6%) were called active. Inconclusive means that the source gave no clear call. Such entries were picked first, then a sample of the others. Calls follow the shape of the dose curve; as a rule, active = well fitted inhibition curve with a large enough effect; inconclusive = small, poorly fitted or top-dose-only effect; inactive = no such curve, though single readings can be large or run the other way. Where the call is inconclusive, the potency comes from a doubtful curve fit.
Also: nearly all actives have a fitted effect of over 70% in size.
For activity change, negative = inhibition in this document: 0% is about no effect.
Potency is read from the fitted curve at half-maximal effect; tags tell the direction and shape of the fitted curve.

These molecules were tested against Lysine-specific demethylase 5B (Homo sapiens) (UniProt Q9UGL1) (assay: Primary screen for KDM5B Histone Demethylases FDH-coupled qHTS). Conditions: FDH-coupled NADH fluorescence (FDH is formaldehyde dehydrogenase); activity change, negative = inhibition: at 57.7 µM (top of the series) unless noted.
Sequence of UniProt Q9UGL1 (Q9UGL1 whole entry, looked up): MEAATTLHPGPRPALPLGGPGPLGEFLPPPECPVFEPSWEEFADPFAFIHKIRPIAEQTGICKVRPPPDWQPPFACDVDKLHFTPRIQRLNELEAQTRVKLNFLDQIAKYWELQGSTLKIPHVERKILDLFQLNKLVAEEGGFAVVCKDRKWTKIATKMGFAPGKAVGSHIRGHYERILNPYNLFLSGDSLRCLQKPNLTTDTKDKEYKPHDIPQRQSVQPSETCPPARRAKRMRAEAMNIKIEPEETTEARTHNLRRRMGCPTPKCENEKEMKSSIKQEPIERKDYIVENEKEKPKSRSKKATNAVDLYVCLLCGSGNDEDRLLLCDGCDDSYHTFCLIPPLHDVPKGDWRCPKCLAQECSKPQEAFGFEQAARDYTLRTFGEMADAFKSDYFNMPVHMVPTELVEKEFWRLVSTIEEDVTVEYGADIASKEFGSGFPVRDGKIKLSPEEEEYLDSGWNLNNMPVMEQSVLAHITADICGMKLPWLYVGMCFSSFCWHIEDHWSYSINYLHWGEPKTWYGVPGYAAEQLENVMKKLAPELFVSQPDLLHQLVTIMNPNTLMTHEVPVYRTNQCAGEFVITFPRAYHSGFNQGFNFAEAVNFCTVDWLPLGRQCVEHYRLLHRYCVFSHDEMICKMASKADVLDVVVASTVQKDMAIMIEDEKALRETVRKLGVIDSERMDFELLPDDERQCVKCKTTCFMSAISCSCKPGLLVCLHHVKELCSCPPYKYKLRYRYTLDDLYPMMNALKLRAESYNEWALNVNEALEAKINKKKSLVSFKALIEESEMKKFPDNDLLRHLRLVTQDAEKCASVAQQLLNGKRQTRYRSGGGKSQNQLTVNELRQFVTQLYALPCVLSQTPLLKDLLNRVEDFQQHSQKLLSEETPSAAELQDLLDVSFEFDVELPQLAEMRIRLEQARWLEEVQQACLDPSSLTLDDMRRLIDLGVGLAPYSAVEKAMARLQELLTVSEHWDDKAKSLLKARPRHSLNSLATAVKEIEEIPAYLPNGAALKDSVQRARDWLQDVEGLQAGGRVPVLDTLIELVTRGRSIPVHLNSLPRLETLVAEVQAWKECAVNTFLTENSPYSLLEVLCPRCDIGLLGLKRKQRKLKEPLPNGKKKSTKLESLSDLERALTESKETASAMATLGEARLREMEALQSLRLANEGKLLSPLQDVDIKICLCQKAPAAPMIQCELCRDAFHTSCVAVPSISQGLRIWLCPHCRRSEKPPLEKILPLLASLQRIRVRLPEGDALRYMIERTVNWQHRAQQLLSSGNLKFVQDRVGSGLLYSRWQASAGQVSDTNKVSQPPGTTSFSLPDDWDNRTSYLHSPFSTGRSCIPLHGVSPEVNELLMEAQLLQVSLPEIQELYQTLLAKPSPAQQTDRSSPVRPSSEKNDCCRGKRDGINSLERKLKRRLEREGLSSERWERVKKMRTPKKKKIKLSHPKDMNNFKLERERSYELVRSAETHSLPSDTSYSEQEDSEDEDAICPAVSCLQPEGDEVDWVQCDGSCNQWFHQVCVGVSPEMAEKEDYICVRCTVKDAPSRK
How it was run: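 Measured: NADH fluorescence change, 30 min, RT. System: KDM5BΔAP 200 nM final, H3K4me3 peptide, α-KG, Fe(II), ascorbate, NAD⁺ plus FDH, pH 7.5 HEPES. Compounds: titrated, 10 min pre-incubation with enzyme.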
In the case of COc1ccc2cnn(CC(=O)Nc3ccccc3F)c(=O)c2c1OC, the Potency is reported as “inactive”.
For Cc1nc2cc(NC(=O)COc3ccc(F)cc3)ccc2o1, the Potency was “inactive”.
With O/N=C/c1ccccc1Br the Potency was “inactive”.
With CC1CCc2onc(C(=O)N3CCN(c4cccc(C(F)(F)F)c4)CC3)c2C1 (stereo not drawn) the activity change, negative = inhibition was inconclusive: -30.3% [inhibitor].
For Cc1cccc(-c2nc3cnccn3c2NCCC(=O)NCc2ccc3c(c2)OCO3)c1, the Potency was active: 28.2 µM.
COCCN1C[C@H]2CN(Cc3nccs3)CCN2C1=O was tested, and the Potency was inconclusive: 28.2 µM [inhibitor, partial curve].
CCNC(=O)c1c(C)oc2c1CN(C(=O)CCc1ccccc1)CC2 was tested, and the Potency was inconclusive: 31.6 µM [inhibitor, partial curve, poor fit].
For O[C@@H]1C[C@@H](c2nc(C3CC3)no2)N(Cc2ccc(OC(F)(F)F)cc2)C1, the Potency was inconclusive: 28.2 µM [inhibitor, single point].
For COc1cc(C)cc2oc(=O)c(CC(=O)Nc3cccc(Cl)c3)c(C)c12, the Potency was inconclusive: 39.8 µM [inhibitor, single point].
In the case of Cc1ccc(NC(=O)Cn2c(C)cc(C)c(C#N)c2=O)cc1F, the Potency is reported as “inactive”.
In the case of Cc1c(CCC(=O)O)c(=O)oc2cc3occ(C(C)(C)C)c3cc12, the Potency is reported as inconclusive: 22.4 µM [inhibitor, partial curve, poor fit].
In the case of CCCCc1nnc(NC(=O)c2ccc3ccn(C)c3c2)s1, the Potency is reported as inconclusive: 20 µM [inhibitor, partial curve, poor fit].
O=C(O)c1ccc(/C=C2\CCCc3c2nc2ccccc2c3C(=O)O)cc1 was tested, and the Potency was inconclusive: 28.2 µM [inhibitor, partial curve, poor fit].
In the case of Cc1ccc(C(=O)Nc2nc3n(n2)C(c2ccccc2)C=C(c2ccccc2)N3)cc1 (stereo not drawn), the Potency is reported as inconclusive: 15.8 µM [inhibitor, partial curve, poor fit].
For CC(C)C(NC(=O)C(c1ccccc1)C1CCCC1)c1ccccc1 (stereo not drawn), the Potency was “inactive”.
COc1ccc(OC)c(NC(=O)c2ccc3c(c2)c(C)c(C)n3Cc2ccc(F)cc2)c1 was tested, and the Potency was inconclusive: 28.2 µM [inhibitor, partial curve, poor fit].
COc1cccc(C2=CC(c3cc(Cl)ccc3OC(F)F)n3ncnc3N2)c1 (stereo not drawn) was tested, and the Potency was inconclusive: 39.8 µM [inhibitor, single point].
With Cc1ccc(C(=O)N2CCn3c(nn(-c4ccc(C(F)(F)F)cc4)c3=O)C2)cc1 the Potency was inconclusive: 89.1 µM [inhibitor, single point].
In the case of O=C(CCSC1CCc2ccccc2NC1=O)Nc1ccc2c(c1)OCCO2 (stereo not drawn), the Potency is reported as “inactive”.
With Cc1ccc2cccc(NC(=O)c3ccc(-c4cc(Cl)ccc4Cl)o3)c2n1 the activity change, negative = inhibition was inconclusive: -36.4% [inhibitor].
For Cc1ccc(C)n1-c1nnc(N2CCCC(C(=O)NCc3ccc(F)cc3)C2)s1 (stereo not drawn), the Potency was inconclusive: 10 µM [inhibitor, partial curve, poor fit].
CCOc1ccc(N(C(=O)c2ccc(C)cc2)S(=O)(=O)c2ccc3c(c2)n(C)c(=O)n3C)cc1 was tested, and the Potency was inconclusive: 2.51 µM [inhibitor, full curve, poor fit].
In the case of O=c1[nH]c(CSc2nc3ccccc3o2)nc2ccccc12, the Potency is reported as inconclusive: 22.4 µM [inhibitor, partial curve, poor fit].
With CCn1cc(S(=O)(=O)c2cc(C)cc(C)c2)c(=O)c2cc(F)c(N3CCC(C)CC3)cc21 the Potency was inconclusive: 39.8 µM [inhibitor, single point].
In the case of CC(=O)c1ccc(NC(=O)[C@@]2(CC(=O)O)CC(c3ccc(Br)cc3)=NO2)cc1, the Potency is reported as inconclusive: 25.1 µM [inhibitor, single point].
With Cc1cccc2c(C(=O)O)c3cccc(C)c3nc12 the Potency was inconclusive: 25.1 µM [inhibitor, partial curve, poor fit].
CC(C)CNc1ccc2nnc(-c3ccccn3)n2n1 was tested, and the Potency was active: 31.6 µM.
With O=[S+]1([O-])NC2(CCN(CC3CC3)CC2)COc2ccccc21 the Potency was inconclusive: 112 µM [inhibitor, single point].
With CCc1c(C)sc(NC(=O)Cc2ccc(Cl)cc2)c1C#N the Potency was “inactive”.
In the case of CC#CCn1cc2c3c(cccc31)[C@H](CC(C)C)N[C@H](C(=O)NCCN(C)C)C2, the Potency is reported as inconclusive: 31.6 µM [inhibitor, partial curve, poor fit].
In the case of COc1ccc(NC(=O)c2sc3nc(C)cc(C)c3c2N)c(OC)c1, the Potency is reported as inconclusive: 25.1 µM [inhibitor, partial curve, poor fit].
With CCCCCCC1CC[S+](c2cc(O)ccc2O)CC1 (stereo not drawn) the Potency was inconclusive: 15.8 µM [inhibitor, partial curve, poor fit].
In the case of CN(c1ccccc1)c1ccc2c(n1)CN(CCOc1ccccc1)C(=O)CO2, the Potency is reported as active: 31.6 µM.
For CCc1cccc(NC(=O)C2CCCN(c3cnn(Cc4ccccc4)c(=O)c3)C2)c1 (stereo not drawn), the Potency was inconclusive: 25.1 µM [inhibitor, single point].
CCC(=O)N1CCN(c2oc(/C=C/c3ccc(Cl)cc3)nc2C#N)CC1 was tested, and the Potency was inconclusive: 8.91 µM [inhibitor, partial curve, poor fit].
In the case of Cc1cc(C)c(NC(=O)c2cnc3ccccc3n2)c(C)c1, the Potency is reported as “inactive”.
In the case of COc1ccc(CNC(=O)CCCc2cn(C)c3ccccc23)c(OC)c1, the Potency is reported as inconclusive: 25.1 µM [inhibitor, partial curve, poor fit].
Cc1nc(CNC(=O)CC2C(=O)NCCN2Cc2ccc(F)cc2)cs1 (stereo not drawn) was tested, and the Potency was inconclusive: 25.1 µM [inhibitor, single point].
CCOC(=O)c1ccc(NC(=O)Cc2ccc(-n3c(CC)nc4cccnc43)cc2)cc1 was tested, and the Potency was “inactive”.
For Cc1ccc(/C=C/c2onc(C)c2S(=O)(=O)N2CCC(C(=O)N3CCOc4ccccc43)CC2)cc1, the Potency was “inactive”.
CCC(NC(=O)c1cccc(OC)c1)c1ccccc1OC(F)F (stereo not drawn) was tested, and the Potency was “inactive”.
With CCN(CC)C(=O)Cn1nnnc1-c1ccc(Br)cc1 the Potency was inconclusive: 39.8 µM [inhibitor, single point].
For COCCNC(=O)c1c(C)noc1-c1cc(OC)c(OC)c(OC)c1, the Potency was active: 28.2 µM.
